Data from publication PMC11358291.
These are yes or no findings as the source states them, for the method shown. For part of these data: In cells and extracts the contact can be indirect. Some binding calls cover weakened binding; strength is not graded here. Each block holds one substance with its values, some of them ahead of it.

Protein sequences, listed by entry. Tags and fused reporters are not part of them.
UniProt P27986: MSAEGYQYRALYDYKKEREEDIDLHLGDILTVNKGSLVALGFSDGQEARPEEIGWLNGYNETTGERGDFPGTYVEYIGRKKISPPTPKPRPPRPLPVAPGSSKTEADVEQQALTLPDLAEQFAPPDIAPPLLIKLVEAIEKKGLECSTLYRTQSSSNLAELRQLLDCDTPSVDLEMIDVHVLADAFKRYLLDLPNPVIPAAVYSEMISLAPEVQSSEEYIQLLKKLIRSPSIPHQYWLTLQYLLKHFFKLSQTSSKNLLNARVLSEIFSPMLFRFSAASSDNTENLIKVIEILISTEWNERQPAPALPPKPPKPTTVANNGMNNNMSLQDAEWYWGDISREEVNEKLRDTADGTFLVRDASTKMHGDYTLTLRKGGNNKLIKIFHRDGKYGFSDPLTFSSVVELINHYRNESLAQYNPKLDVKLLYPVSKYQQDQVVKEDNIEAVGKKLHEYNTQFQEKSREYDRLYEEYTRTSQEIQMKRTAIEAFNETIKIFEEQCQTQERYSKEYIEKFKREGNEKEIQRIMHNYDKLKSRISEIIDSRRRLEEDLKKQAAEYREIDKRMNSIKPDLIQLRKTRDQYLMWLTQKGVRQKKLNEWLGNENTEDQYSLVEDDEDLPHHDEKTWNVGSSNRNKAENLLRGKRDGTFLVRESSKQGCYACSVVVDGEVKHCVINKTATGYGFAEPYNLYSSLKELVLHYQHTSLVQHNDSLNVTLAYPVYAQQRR
UniProt Q13283: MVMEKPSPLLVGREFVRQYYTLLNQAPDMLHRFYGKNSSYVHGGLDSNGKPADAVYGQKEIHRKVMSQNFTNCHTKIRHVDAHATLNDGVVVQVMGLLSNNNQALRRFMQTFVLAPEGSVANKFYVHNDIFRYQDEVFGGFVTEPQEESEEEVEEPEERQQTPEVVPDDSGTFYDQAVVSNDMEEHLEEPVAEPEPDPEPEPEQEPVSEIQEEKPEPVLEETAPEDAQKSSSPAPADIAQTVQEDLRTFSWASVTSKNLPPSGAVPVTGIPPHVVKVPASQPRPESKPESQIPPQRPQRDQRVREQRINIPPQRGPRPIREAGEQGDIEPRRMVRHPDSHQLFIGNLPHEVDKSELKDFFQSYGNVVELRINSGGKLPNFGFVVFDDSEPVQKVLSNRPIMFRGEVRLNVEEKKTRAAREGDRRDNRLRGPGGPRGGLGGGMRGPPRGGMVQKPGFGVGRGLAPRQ
UniProt P42336: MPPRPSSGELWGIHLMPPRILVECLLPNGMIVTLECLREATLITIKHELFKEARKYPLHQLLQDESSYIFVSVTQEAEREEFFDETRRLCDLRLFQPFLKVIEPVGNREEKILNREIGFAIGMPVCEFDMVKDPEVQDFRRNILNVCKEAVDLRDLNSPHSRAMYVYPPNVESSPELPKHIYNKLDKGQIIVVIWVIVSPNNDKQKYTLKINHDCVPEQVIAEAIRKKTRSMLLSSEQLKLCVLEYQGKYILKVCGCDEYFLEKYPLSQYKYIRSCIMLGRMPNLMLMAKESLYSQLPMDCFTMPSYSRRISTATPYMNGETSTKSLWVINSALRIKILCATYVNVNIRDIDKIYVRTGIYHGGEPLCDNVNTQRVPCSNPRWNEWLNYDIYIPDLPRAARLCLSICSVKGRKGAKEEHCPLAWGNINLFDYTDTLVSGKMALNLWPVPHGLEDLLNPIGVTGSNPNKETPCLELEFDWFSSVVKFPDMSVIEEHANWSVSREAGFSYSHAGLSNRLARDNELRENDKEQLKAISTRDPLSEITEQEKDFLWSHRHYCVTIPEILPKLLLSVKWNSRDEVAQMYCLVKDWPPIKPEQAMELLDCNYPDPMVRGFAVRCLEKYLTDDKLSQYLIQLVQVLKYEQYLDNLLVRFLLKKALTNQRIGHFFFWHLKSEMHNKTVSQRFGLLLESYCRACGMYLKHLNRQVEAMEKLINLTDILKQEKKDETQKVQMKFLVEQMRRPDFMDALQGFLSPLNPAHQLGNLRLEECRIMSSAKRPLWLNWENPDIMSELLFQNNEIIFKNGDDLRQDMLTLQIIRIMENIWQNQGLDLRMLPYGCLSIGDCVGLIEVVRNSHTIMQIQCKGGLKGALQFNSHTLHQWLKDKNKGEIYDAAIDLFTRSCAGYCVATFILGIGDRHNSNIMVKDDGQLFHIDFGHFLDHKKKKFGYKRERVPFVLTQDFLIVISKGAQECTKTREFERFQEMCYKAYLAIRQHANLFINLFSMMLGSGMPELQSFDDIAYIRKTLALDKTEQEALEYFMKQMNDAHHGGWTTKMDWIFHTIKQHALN
UniProt Q99873: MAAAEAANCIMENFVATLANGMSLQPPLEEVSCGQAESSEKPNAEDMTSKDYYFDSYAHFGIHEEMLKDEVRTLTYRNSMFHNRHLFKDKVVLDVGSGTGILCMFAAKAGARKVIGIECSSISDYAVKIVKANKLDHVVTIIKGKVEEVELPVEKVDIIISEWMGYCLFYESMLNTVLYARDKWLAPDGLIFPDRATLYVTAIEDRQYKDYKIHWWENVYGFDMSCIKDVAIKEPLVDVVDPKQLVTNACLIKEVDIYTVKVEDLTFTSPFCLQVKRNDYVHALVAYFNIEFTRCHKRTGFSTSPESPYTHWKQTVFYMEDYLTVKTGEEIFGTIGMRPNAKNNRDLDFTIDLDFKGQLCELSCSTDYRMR
UniProt P11940: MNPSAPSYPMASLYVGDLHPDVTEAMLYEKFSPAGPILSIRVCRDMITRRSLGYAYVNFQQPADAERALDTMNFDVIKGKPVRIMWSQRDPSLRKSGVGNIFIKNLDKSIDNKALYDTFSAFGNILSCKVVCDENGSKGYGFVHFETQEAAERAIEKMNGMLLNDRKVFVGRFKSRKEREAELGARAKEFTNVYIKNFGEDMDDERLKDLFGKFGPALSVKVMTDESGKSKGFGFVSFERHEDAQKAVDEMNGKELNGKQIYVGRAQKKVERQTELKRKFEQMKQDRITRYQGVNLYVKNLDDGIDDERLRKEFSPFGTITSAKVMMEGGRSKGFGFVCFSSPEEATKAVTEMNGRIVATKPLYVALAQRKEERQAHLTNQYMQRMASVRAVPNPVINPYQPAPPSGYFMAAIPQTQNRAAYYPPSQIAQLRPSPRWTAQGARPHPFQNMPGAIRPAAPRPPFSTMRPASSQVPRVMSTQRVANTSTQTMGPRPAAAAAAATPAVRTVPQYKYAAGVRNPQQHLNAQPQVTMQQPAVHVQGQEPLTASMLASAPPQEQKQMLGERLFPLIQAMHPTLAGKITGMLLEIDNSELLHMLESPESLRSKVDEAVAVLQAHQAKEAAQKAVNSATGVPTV

Tests used:
HA-p85α = HA-p85α (UniProt P27986); assay: co-IP; HEK293T cells co-transfected with a Flag-tagged and an HA-tagged protein; IP with anti-Flag or anti-HA, western blot of the other tag; IP lysis buffer 25 mM Tris-HCl pH 7.4, 1% Nonidet P-40, 150 mM NaCl, 1 mM EDTA, 5% glycerol; 4 °C overnight
HA-G3BP1 = HA-G3BP1 (UniProt Q13283); assay: as above
Flag-p110α [1] = target: Flag-p110α (UniProt P42336); assay: as above
GST-p110α = GST-p110α (UniProt P42336); assay: pull-down; GST-labelled protein from E. coli BL21 (DE3) on glutathione-Sepharose beads overnight at 4 °C, His-tagged protein added for 4 h at 4 °C; immunoblot with anti-His antibody; both purified
Flag-p110α [2] = target: Flag-p110α (UniProt P42336); assay: co-IP; as a5 with EE (2 mM EDTA, 2.5 mM EGTA) or MgCl2 (5 mM) in the lysis buffer, lanes 5 and 7
Flag-p110α [3] = target: Flag-p110α (UniProt P42336); assay: co-IP; HEK293T cells transfected with Flag-p110α, with or without AS; Flag precipitates blotted for SG proteins; no additive in the lysis buffer (lanes 2 and 3)
Flag-p110α [4] = target: Flag-p110α (UniProt P42336); assay: condition: only with RNase A (40 μg/ml) in the lysis buffer; co-IP; as a5 with RNase A (40 μg/ml) in the lysis buffer (lane 4; for G3BP1 and PABP also lanes 6, 8 and 9 with EE and/or MgCl2); with EE the RPL4 and RPS6 signal was enhanced (lane 6)
[5] = target: endogenous p110α (HepG2) (human (endogenous in HepG2)) (UniProt P42336); assay: co-IP; endogenous proteins in HepG2 cells; IP with antibodies to either partner, western blot; IP lysis buffer, 4 °C overnight
HA-G3BP1 (in HepG2) [6] = target: HA-G3BP1 (in HepG2) (UniProt Q13283); assay: condition: only with RNase A (40 μg/ml) in the lysis buffer; co-IP; as a3 but with RNase A (40 μg/ml) in the lysis buffer
HA-G3BP1 (in HepG2) [7] = target: HA-G3BP1 (in HepG2) (UniProt Q13283); assay: co-IP; HepG2 cells transfected with HA-G3BP1, with or without Flag-p110α (or p110α knockdown), with or without AS (500 μM, 1 h); HA precipitates blotted for PABP, RPL4, RPS6; no RNase

Substance: Flag-p85α (from UniProt P27986 1-724)
binding (HA-G3BP1): no binding

Substance: HA-G3BP1 (from UniProt Q13283 1-466)
binding (Flag-p110α [1]): binds

Substance: HA-PRMT1 (from UniProt Q99873 1-371) (enzyme)
binding (Flag-p110α [1]): binds

Substance: endogenous G3BP1 (HEK293T) (from UniProt Q13283 1-466)
binding (Flag-p110α [2]): binds
binding (Flag-p110α [3]): binds
binding (Flag-p110α [4]): no binding

Substance: endogenous G3BP1 (HepG2) (from UniProt Q13283 1-466)
binding [5]: binds

Substance: endogenous PABP (HEK293T) (from UniProt P11940 1-636)
binding (Flag-p110α [2]): binds
binding (Flag-p110α [3]): binds
binding (Flag-p110α [4]): no binding

The remaining lines, values ahead:

binding (HA-p85α): no binding
Substance: Flag-PRMT1 (from UniProt Q99873 1-371) (enzyme)

binding (GST-p110α): binds
Substance: His-PRMT1 (from UniProt Q99873 1-371) (enzyme)

binding (HA-G3BP1 (in HepG2) [6]): no binding
binding (HA-G3BP1 (in HepG2) [7]): binds
Substance: endogenous PABP (HepG2) (from UniProt P11940 1-636)

binding [5]: binds
Substance: endogenous PRMT1 (HepG2) (from UniProt Q99873 1-371) (enzyme)
